In the supplement of paper PMC12217912:
This is one part of the list. The full chains were built here from the parent and the listed change. Values near 0.05 are background.

B1: TEV protease; numbered along this chain (parent)
chain: MGESLFKGPRDYNPISSSICHLTNESDGHTTSLYGIGFGPFIITNKHLFRRNNGTLVVQSLHGVFKVKDTTTLQQHLVDGRDMIIIRMPKDFPPFPQKLKFREPQREERICLVTTNFQTKSMSSMVSDTSCTFPSGDGIFWKHWIQTKDGQCGSPLVSTRDGFIVGIHSASNFTNTNNYFTSVPKNFMELLTNQEAQQWVSGWRLNADSVLWGGHKVFMVKPEEPFQPVKEATQL

Variants of: B1
Assay: raw area under fraction-flipped curve 0-4 h after induction (AUC4h, not background-subtracted), DNA-recorder readout of cleavage of the substrate (dimensionless); higher = more cleavage of the substrate by the protease variant
Conditions: temperature: 34 °C; time window: 0-4 h after rhamnose induction
Experimental: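 In vivo DNA recorder in E. coli TOP10(DE3) ΔrhaA at 34 °C. Each TEVp single-site mutant (parent TEVp 0) is paired with a single-site variant of the 7-mer TEVs (canonical ENLYFQ|S). The substrate sits between flexible linkers in a Bxb1-sfGFP-TEVs-SsrA fusion, so cleavage stabilises Bxb1 and speeds flipping of a recombination array, read by NGS. The value is the raw area under the fraction-flipped curve over 0-4 h after rhamnose induction (AUC4h), with ≥20 reads per time point. It is not background-subtracted; inactive controls average about 0.047.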
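Further: Bxb1 expression induced with 0.2% (w/v) L-rhamnose at OD600 near 0.5, cultures sampled hourly, flipped fraction per protease–substrate barcode pair counted by paired-end Illumina sequencing.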

| Variant | area with substrate CNLYFQS | area with substrate DNLYFQS | area with substrate FNLYFQS | area with substrate GNLYFQS | area with substrate HNLYFQS | area with substrate INLYFQS | area with substrate KNLYFQS | area with substrate LNLYFQS | area with substrate MNLYFQS | area with substrate NNLYFQS | area with substrate PNLYFQS | area with substrate SNLYFQS | area with substrate TNLYFQS | area with substrate VNLYFQS | area with substrate WNLYFQS | area with substrate YNLYFQS | area with substrate RNLYFQS | area with substrate QNLYFQS |
| --- | --- | --- | --- | --- | --- | --- | --- | --- | --- | --- | --- | --- | --- | --- | --- | --- | --- | --- |
| T71V | 0.0789 | 0.0794 | 0.0558 | 0.0709 | 0.0589 | 0.0783 | 0.0732 | 0.0558 | 0.0515 | 0.0561 | 0.0604 | 0.0587 | 0.0656 | 0.052 | 0.0656 | 0.0713 | – | – |
| N13M | 0.0624 | 0.0575 | – | – | 0.0601 | – | 0.0604 | 0.072 | 0.0636 | – | 0.0437 | – | 0.0781 | – | 0.0622 | – | – | – |
| G28Q | 0.0543 | 0.0377 | 0.0611 | 0.0478 | 0.0643 | 0.0529 | 0.0698 | 0.0609 | – | 0.0901 | – | 0.0668 | 0.0594 | 0.0696 | 0.0577 | 0.0577 | 0.0636 | – |
| F95A | 0.0592 | 0.009 | 0.0602 | – | 0.0596 | 0.0668 | – | 0.0695 | – | 0.0677 | 0.072 | 0.0111 | – | – | – | 0.0496 | – | – |
| T115Y | 0.0344 | 0.081 | 0.0674 | 0.0665 | 0.0578 | 0.0714 | – | – | 0.0254 | – | 0.0679 | 0.0678 | 0.0646 | 0.0577 | 0.0632 | – | – | 0.0679 |
| H62Y | 0.0609 | 0.101 | – | – | 0.0685 | 0.062 | – | 0.069 | 0.0733 | 0.0725 | – | 0.0735 | 0.0631 | – | 0.0631 | 0.0695 | – | 0.0777 |
| T55C | 0.0763 | 0.0557 | – | – | 0.0431 | 0.0636 | 0.0588 | 0.0672 | 0.0648 | – | – | – | 0.0636 | – | 0.0584 | 0.0593 | – | – |
| P225C | 0.0406 | 0.0799 | 0.0644 | 0.0498 | 0.0686 | – | 0.0794 | – | 0.0879 | – | 0.0643 | 0.0607 | 0.0864 | – | 0.0594 | – | – | 0.0897 |
| E103T | 0.0745 | 0.0723 | – | 0.0536 | 0.0671 | 0.0666 | 0.0741 | 0.0573 | 0.0838 | – | – | 0.0625 | 0.0656 | – | 0.0792 | – | 0.0634 | – |
| D79F | 0.0591 | 0.0959 | – | 0.0718 | 0.0611 | 0.0696 | – | – | 0.071 | 0.0913 | 0.0702 | 0.0713 | 0.0613 | – | 0.0751 | 0.0554 | – | – |
| Y12M | 0.0705 | 0.0768 | 0.0555 | 0.0647 | 0.0531 | 0.0587 | 0.0676 | 0.0591 | 0.0616 | – | 0.0491 | 0.0658 | 0.052 | – | 0.0476 | 0.0521 | – | – |
| Y12N | 0.0375 | 0.0912 | 0.0697 | 0.0651 | 0.0624 | 0.0494 | 0.0744 | 0.0694 | – | 0.0695 | 0.112 | 0.0604 | 0.0795 | 0.0877 | 0.0579 | – | – | 0.0649 |
| I139V | 0.0681 | 0.105 | 0.0648 | – | 0.0446 | 0.0649 | 0.0685 | 0.0733 | 0.0722 | 0.0604 | 0.0609 | – | – | 0.0546 | 0.0626 | 0.0639 | – | – |
| P134Q | 0.0483 | 0.0856 | – | – | – | – | – | 0.0556 | – | – | 0.0408 | 0.0635 | – | – | 0.0664 | – | – | – |
